Results taken from the supplement of paper PMC4166925.
± gives the standard deviation of the averaged measurements. Whole data set: some 33,000 sequences, median “E-score (dimensionless, -0.5 to 0.5)” near -0.046, cut for the highest 2% near 0.36. Some of the results follow.

The sequences below were run on T1, SpTbr T-box DNA-binding domain (GST fusion) (assay: PBM E-score of 8-mer (E-score (dimensionless, -0.5 to 0.5)); Tbr is Tbrain of the sea star Patiria miniata (Pm) or the sea urchin Strongylocentrotus purpuratus (Sp); higher = stronger binding preference; most listed sequences are background and not binding sites). Settings: the construct has about 5 more residues each side.
T1 sequence: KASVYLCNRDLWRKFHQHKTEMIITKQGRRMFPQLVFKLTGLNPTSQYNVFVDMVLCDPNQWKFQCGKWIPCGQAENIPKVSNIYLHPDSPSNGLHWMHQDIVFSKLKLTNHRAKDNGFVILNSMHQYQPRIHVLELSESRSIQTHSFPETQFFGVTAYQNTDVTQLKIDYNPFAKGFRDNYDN
Protocol: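 Universal protein-binding microarray (Agilent AMADID 016060, 60-bp probes with a 35-bp variable region) incubated with 200 nM GST-fused Strongylocentrotus purpuratus Tbr T-box DNA-binding domain (residues 362-554) in PBS pH 7.5. Scored for every ungapped 8-mer (given with its reverse complement) as E-score (range -0.5 to 0.5; >0.45 counts as bound) and Z-score of median probe intensity. Two replicate arrays (datasets 1 and 2).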
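Also: protein at 200 nM in PBS on universal double-stranded arrays.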

Row | Sequence | PBM E-score of 8-mer
1 | AGCGGGAC | 0.00749 ± 0.035
2 | GATTACGA | 0.0882 ± 0.03
3 | GACTGCCC | -0.173 ± 0.018
4 | GATGGAGC | 0.0377 ± 0.037
5 | AAGGCTAA | -0.0496 ± 0.001
6 | AGTTCTTC | -0.245 ± 0.0077
7 | ACTACACG | 0.115 ± 0.024
8 | ATCTTTTG | -0.329 ± 0.14
9 | CGCTTCAA | 0.0845 ± 0.028
10 | CCTTTCGA | -0.0209 ± 0.0015
11 | GCGCTTTA | -0.0891 ± 0.051
12 | CACGGCTA | 0.0881 ± 0.051
13 | CTATGACC | -0.147 ± 0.085
14 | TCGGACCA | -0.186 ± 0.062
15 | AACTATCG | 0.0225 ± 0.067
16 | GCGAGATA | 0.105 ± 0.0039
17 | ACGAGAGC | 0.0323 ± 0.003
18 | ACTAGCTA | -0.0165 ± 0.021
19 | AGGGCTAA | -0.078 ± 0.017
20 | AGTTACTA | -0.194 ± 0.0084
21 | CGATCAAG | 0.103 ± 0.018
22 | GACTAGGA | -0.106 ± 0.097

Row | Sequence | PBM E-score of 8-mer
23 | CTGGCCTA | -0.185 ± 0.024
24 | GAGCAACA | 0.216 ± 0.05
25 | CGGCGAGC | -0.222 ± 0.14
26 | GCGATAAA | 0.171 ± 0.082
27 | ACTGGGAG | -0.109 ± 0.022
28 | CGAAGACA | 0.185 ± 0.0088
29 | AGGCACTG | -0.215 ± 0.027
30 | CCTGCAAG | 0.03 ± 0.041
31 | TGACGGAA | 0.0973 ± 0.045
32 | AGAGCCCT | -0.185 ± 0.0023
33 | AACGCGCT | 0.22 ± 0.035
34 | CCACTGGC | 0.0913 ± 0.048
35 | GCAAATTA | -0.0268 ± 0.038
36 | AAGTTGCC | 0.197 ± 0.029
37 | ATGGCCCG | -0.221 ± 0.03
38 | AAGGCTCA | -0.248 ± 0.053
39 | CATTCGTA | -0.0369 ± 0.038
40 | AGGGGTCA | -0.0738 ± 0.078
41 | TACTCTAA | -0.249 ± 0.012
42 | ACATCATG | -0.106 ± 0.054
43 | GCTGACAC | 0.386 ± 0.039
44 | AGCGGGGG | -0.0618 ± 0.1

Row | Sequence | PBM E-score of 8-mer
45 | CAGGCGAA | -0.0334 ± 0.076
46 | AATAGTAA | -0.242 ± 0.059
47 | ATGTTGGC | 0.0194 ± 0.013
48 | AAGTGACC | 0.233 ± 0.041
49 | CGAAGGCA | -0.0251 ± 0.047
50 | CCTTTGAC | -0.00585 ± 0.066
51 | CTCTTGGC | 0.0277 ± 0.019
52 | CGCGTCAC | 0.277 ± 0.039
53 | ATTTCAGG | -0.0292 ± 0.024
54 | GCCATTGA | 0.0175 ± 0.076
55 | CCAACTTA | -0.0979 ± 0.16
56 | GAAGCTGC | 0.122 ± 0.036
57 | AAGACTAA | -0.0658 ± 0.041
58 | ATGTCACA | 0.3087 ± 0.00058
59 | TGATGGAA | 0.117 ± 0.0081
60 | AATGTGAG | 0.225 ± 0.027
61 | GTTTAAAA | -0.163 ± 0.092
62 | AGAATGCG | 0.0261 ± 0.086
63 | AGCAGCCG | -0.124 ± 0.028
64 | TCAGCCAA | -0.0806 ± 0.037
65 | ATCTCGCA | 0.247 ± 0.024
66 | CGACTGCC | 0.0376 ± 0.032

Row | Sequence | PBM E-score of 8-mer
67 | ATTAAACG | -0.122 ± 0.018
68 | ACAGCTCG | 0.152 ± 0.048
69 | GACCTTCA | -0.0627 ± 0.081
70 | CTAGTAAA | -0.148 ± 0.0045
71 | ACAGGCGA | 0.195 ± 0.051
72 | CTATCGTC | 0.0527 ± 0.092
73 | CTGGCTTC | -0.226 ± 0.022
74 | ACGAAAAC | 0.105 ± 0.023
75 | AAAGTCGT | 0.133 ± 0.015
76 | AAGCGGCT | -0.139 ± 0.032
77 | ATCCCAAC | -0.117 ± 0.15
78 | CAAAACTG | 0.116 ± 0.019
79 | AAGGACGT | -0.154 ± 0.034
80 | TATGGGGA | -0.182 ± 0.014
81 | ACATGCCG | -0.13 ± 0.024
82 | TAGCGCTA | 0.222 ± 0.056
83 | ATCGGTAC | -0.259 ± 0.038
84 | ATCATAGA | -0.173 ± 0.071
85 | CTGACGGA | 0.138 ± 0.075
86 | ACACCAAG | 0.311 ± 0.018
